Measured values reported in PubChem BioAssay AID624417 (National Center for Advancing Translational Sciences (NCATS), 2012).
The campaign covered roughly 410,000 compounds. About 6,400 (1.6%) were called active. Inconclusive results, whose numbers are uncertain, are shown with a selection of clear calls. The call rests on the fitted dose curve; in most records, active means well fitted inhibition curve with a large enough effect; inconclusive means small, poorly fitted or top-dose-only effect; inactive means no such curve, though single readings can be large or run the other way. No potency is given beside an inconclusive call; the fits are too rough.

Biological target: Glucagon-like peptide 1 receptor (Homo sapiens) (UniProt P43220)
Chain of UniProt P43220 (P43220 whole entry, looked up): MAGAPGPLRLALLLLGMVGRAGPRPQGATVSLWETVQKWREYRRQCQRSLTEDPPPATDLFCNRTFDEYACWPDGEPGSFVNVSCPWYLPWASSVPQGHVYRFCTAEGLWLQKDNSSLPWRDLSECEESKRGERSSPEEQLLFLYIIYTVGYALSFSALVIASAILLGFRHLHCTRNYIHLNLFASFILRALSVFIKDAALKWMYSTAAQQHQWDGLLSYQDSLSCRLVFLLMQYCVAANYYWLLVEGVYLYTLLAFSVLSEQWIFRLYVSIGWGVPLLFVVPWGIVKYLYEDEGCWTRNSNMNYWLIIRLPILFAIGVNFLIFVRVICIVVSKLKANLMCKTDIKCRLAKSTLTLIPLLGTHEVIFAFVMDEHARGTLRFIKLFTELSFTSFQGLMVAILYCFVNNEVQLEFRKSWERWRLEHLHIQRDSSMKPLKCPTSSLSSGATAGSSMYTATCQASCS
Test: qHTS of GLP-1 Receptor Inverse Agonists (Inhibition Mode); further: nearly all actives have a fitted effect of over 55% in size
Settings: HEK293 GLP-1R CRE-luciferase, luminescence, 24 h, GLP-1R form is constitutively active; series mostly up to 38.3 µM
Summary of the method: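 Inverse agonism was detected as reduced cAMP-driven luciferase luminescence after 24 h compound treatment. The cells were HEK293 clones expressing constitutively active human GLP-1R with the reporter. Reporter-only and GPR119 cell lines served as counterscreen controls.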
Potency means the concentration at half of the fitted maximal effect; tags describe the fitted curve by direction and shape.

Row | Structure (SMILES) | Potency
1 | O=S(=O)(c1cccs1)N1CCC(CO)(Cc2ccc(Cl)cc2)CC1 | inconclusive [inhibitor, partial curve, poor fit]
2 | COc1ccc2cc(-c3[nH]ncc3CN3CCCC3c3nonc3C)ccc2c1 (stereo unspecified) | inconclusive [inhibitor, partial curve, poor fit]
3 | COc1ccc(C(=O)/C=C/Nc2cc(C)ccn2)cc1 | inconclusive [inhibitor, partial curve, poor fit]
4 | C(=N\Nc1nc2ccccc2[nH]1)/c1ccc2c(c1)OCO2 | inconclusive [inhibitor, single point]
5 | CCN(CC)c1ccc(CNc2nc3ccccc3n2CCN2CCOCC2)cc1 | inconclusive [inhibitor, single point]
6 | Cc1ccc(CN(Cc2ccco2)C(=O)c2ccc(Cl)cc2)o1 | inconclusive [inhibitor, single point]
7 | CCc1ccccc1NC(=O)CSc1ncc(S(=O)(=O)c2ccc(C(C)C)cc2)c(N)n1 | inconclusive [inhibitor, single point]
8 | CCc1cccc(C)c1Nc1c(-c2cccc(O)c2)nc2nc(C)cc(C)n12 | inconclusive [inhibitor, single point]
9 | CC1=C(C(=O)Nc2ccc(Cl)cc2)C(c2ccc(C(F)(F)F)cc2)n2nnnc2N1 (stereo unspecified) | inconclusive [inhibitor, single point]
10 | CCOC(=O)c1c(C)sc(-c2c(-c3ccc(OC)c(F)c3)[nH]c3[nH]c(=O)[nH]c(=O)c23)c1O | inconclusive [inhibitor, full curve]
11 | Cc1cc(C(=O)NNc2ccc(C(C)C)cc2)n(C(C)(C)C)n1 | inconclusive [inhibitor, partial curve]
12 | O=C(COC(=O)c1ccc(F)c(S(=O)(=O)N2CCCCC2)c1)NCc1ccc(F)cc1 | inconclusive [inhibitor, single point]
13 | CCc1cccc2c(C(=O)C(NC(C)CC)c3ccccc3)c[nH]c12 (stereo unspecified) | inconclusive [inhibitor, partial curve, poor fit]
14 | CCOC(=O)c1cc(-c2ccc(OC)cc2)n(CCC(=O)Nc2nc3ccc(OCC)cc3s2)c1C | inactive
15 | CCc1cc(C(=O)N2CCN(S(=O)(=O)c3ccccc3F)CC2)sc1C | inconclusive [inhibitor, partial curve, poor fit]
16 | Cc1ccc(CN=C2Nc3ccccc3CS2)cc1 | inconclusive [inhibitor, single point]
17 | CC1=C(C(=O)N(C)C)CC(CC(=O)NCCc2ccccn2)C(=O)N1CCC1=CCCCC1 (stereo unspecified) | inactive
18 | CC(OC(=O)CCNS(=O)(=O)c1ccc(Cl)cc1)C(=O)N(C)Cc1ccccc1 (stereo unspecified) | inconclusive [inhibitor, single point]
19 | COc1ccc(Cl)cc1NS(=O)(=O)c1cccc(C(=O)NCC(c2ccco2)N2CCCC2)c1 (stereo unspecified) | inconclusive [inhibitor, single point]
20 | COc1ccc2nc(-c3ccccc3)[nH]c2c1 | inactive
21 | CN1OC[C@@H]2CN[C@H](c3cccc(-c4ccc(C#N)cc4)c3)C[C@@H]21 | inactive

Row | Structure (SMILES) | Potency
22 | c1ccc(CN2C3=NCCCN3c3ccccc32)cc1 | inconclusive [inhibitor, single point]
23 | O=C(NCCC(=O)N(CCc1ccccc1)Cc1ccccc1)c1ccccc1Cl | inconclusive [inhibitor, partial curve, poor fit]
24 | Cc1nc(N2CCOCC2)c2c(C)c(C(=O)Nc3ccc(C(F)(F)F)cc3)sc2n1 | inconclusive [inhibitor, single point]
25 | CCC1CCCCN1C(=O)Cn1c(=O)cc(C(F)(F)F)c2c(C)nn(C)c21 (stereo unspecified) | active: 10 µM
26 | COC(=O)c1c(O)cc(C(C)(C)C)n(-c2ccc(F)cc2)c1=O | inconclusive [inhibitor, single point]
27 | COc1cc(CNCCCN2CCOCC2)ccc1OCC(=O)Nc1cccc(C(F)(F)F)c1 | inconclusive [inhibitor, partial curve, poor fit]
28 | CCCN1C2CCCC1CC(NC(=O)c1cccc(Cl)c1)C2 (stereo unspecified) | inactive
29 | Cc1cccc(-c2cnc(C(O)c3ccc4ccccc4c3)[nH]2)c1 (stereo unspecified) | inconclusive [inhibitor, partial curve]
30 | CCc1ccc(-c2cc(C)no2)cc1S(=O)(=O)N1CCN(c2ccccc2OC)CC1 | active: 4.47 µM
31 | O=C(N/N=C/c1ccc([N+](=O)[O-])s1)c1cccc(Br)c1 | inconclusive [inhibitor, partial curve, poor fit]
32 | Cc1ccc(F)c(NC(=O)c2c(-c3ccccc3)noc2C)c1 | inconclusive [inhibitor, partial curve]
33 | Cc1ccccc1NC(=O)c1ccc(Cl)c(S(=O)(=O)N2CCCCCC2)c1 | inconclusive [inhibitor, partial curve, poor fit]
34 | O=C1C=C(N2CCOCC2)c2cccc3cccc1c23 | inactive
35 | COc1ccc2[nH]cc(CCNC(=O)CCC3CCCCC3)c2c1 | inconclusive [inhibitor, partial curve, poor fit]
36 | Cc1ccc(N=C2NC(=O)/C(=C/c3cccn3C)S2)cc1C | inactive
37 | CCc1ccc(S(=O)(=O)c2c(C(=O)c3ccccc3)cnc3ccc(CC)cc23)cc1 | inconclusive [inhibitor, partial curve, poor fit]
38 | COc1ccccc1NC(=O)C(=O)NCCC1CCCCN1S(=O)(=O)c1cccs1 (stereo unspecified) | inconclusive [inhibitor, single point]
39 | CCc1ccccc1Nc1ccc(C(=O)O)cc1N | inactive
40 | O=S(=O)(c1cccc(F)c1)N1CCC(Oc2ccc(-n3cnnn3)cc2)CC1 | inactive
41 | CC(C)c1ccc(OCC(O)CN2CCN(c3ccc(F)cc3)CC2)cc1 (stereo unspecified) | inconclusive [inhibitor, single point]
